# Test results reported in PubChem BioAssay AID504832 (National Center for Advancing Translational Sciences (NCATS), 2011).
# About 18,000 (5.8%) of roughly 310,000 compounds were called active. The shares of active, inactive and inconclusive entries below differ from those in the screen. Calls come from the whole dose curve; as a rule, active = well fitted inhibition curve with a large enough effect; inconclusive = small, poorly fitted or top-dose-only effect, or another doubt; inactive = no such curve, though single readings can be large or run the other way. No potency is given beside an inconclusive call; the fits are too rough.
# Assay: Primary qHTS for delayed death inhibitors of the malarial parasite plastid, 48 hour incubation
# Conditions: P. falciparum luciferase growth in erythrocytes; series mostly up to 28.7 µM
# Procedure, shortened: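 Luminescence readout; reporter = integrated firefly luciferase in P. falciparum. RBC culture at 2% hematocrit, 0.1% parasitemia final, 37 C/5% CO2; decreased signal taken as growth inhibition.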
# Potency is the fitted concentration of half-maximal effect; tags give direction and shape of the fitted curve.
row,Structure (SMILES),Potency
1,Cc1ccsc1/C=C1\C(=O)NC(=S)N(C)C1=O,inactive
2,O=C(Nc1ccccc1C(=O)N1CCCC1)c1cccc(S(=O)(=O)N2CCCCCC2)c1,"inconclusive [inhibitor, partial curve, poor fit]"
3,CCC(CO)NCc1ccc(Br)cc1 (stereo not given),inactive
4,Cc1cccc2c(C(=O)N3CCN(c4ccccn4)CC3)cc(-c3cccc(Br)c3)nc12,"inconclusive [inhibitor, single point]"
5,Clc1ccccc1-c1nnc2sc(-c3cccs3)nn12,"inconclusive [inhibitor, partial curve, poor fit]"
6,O=C(N1CCCC1)C12CC3CCC(CC(C3)C1)C2,"inconclusive [inhibitor, partial curve, poor fit]"
7,COC(=O)c1ccc(NC(=S)NCCc2cccc(C)c2)cc1,"inconclusive [inhibitor, partial curve]"
8,O=P(COCCOCCOCCOCP(=O)(c1ccccc1)c1ccccc1)(c1ccccc1)c1ccccc1,"inconclusive [inhibitor, partial curve]"
9,Cc1cc(C)c(C#N)c(SCCN2CCOCC2)n1,"inconclusive [inhibitor, partial curve, poor fit]"
10,CCCn1cc(CN2CCC(n3nccc3NC(=O)CCOc3ccccc3)CC2)c(C)n1,inactive
11,O=C(/C=C/c1ccccc1Cl)Nc1ccc(-c2nnc3n2CCCCC3)cc1,inactive
12,CC(C)n1c(CN2CCN(Cc3ccccc3)CC2)nc2ccccc21,"inconclusive [inhibitor, single point]"
13,CNC(=S)NNC(=O)c1ccccc1Br,inactive
14,O=C(N/N=C/c1cccc2ccccc12)c1cccc(F)c1,"inconclusive [inhibitor, partial curve]"
15,CCCCn1c(O)c(C(CC)=NCc2ccc(F)cc2)c(=O)[nH]c1=O,"inconclusive [inhibitor, single point]"
16,CC(OC(=O)Cn1[nH]c(=O)c2ccccc2c1=O)C(=O)NC1(C#N)CCCCC1 (stereo not given),active: 10.4 µM
17,CCN(CC)CCn1c2c(c(SCC(=O)Nc3cccc4ccccc34)nc1=O)CCCC2,"inconclusive [inhibitor, single point]"
18,Cc1cccc(C)c1C(=NCCCN(C)C)c1ccccc1,active: 9.28 µM
19,c1ccc2c(NCC3CCCO3)nc(N3CCCCC3)nc2c1 (stereo not given),"inconclusive [inhibitor, partial curve, poor fit]"
20,COc1cc(/C=C/C(=O)OCC(=O)Nc2ccc(C)c(S(=O)(=O)N3CCCCC3)c2)ccc1O,"inconclusive [inhibitor, single point]"
